Measured values from patent US20070111259A1 (BIOSITE, published 2007).

Experiments:
[1] = target: T1, biotinylated interleukin 8 (IL8-biotin) (human, UniProt P10145 21-99, reacted with biotin-XX-NHS ester (1 mM); labelled residues not stated); assay: fraction of Fab bound by a large excess of biotin-IL-8, removed on avidin magnetic latex
T1 construct: mature; also called IL-8 labeled with biotin; biotinylated IL-8
T1 sequence: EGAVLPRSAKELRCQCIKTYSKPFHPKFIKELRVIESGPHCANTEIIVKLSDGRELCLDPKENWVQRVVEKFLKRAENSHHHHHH

[2] = target: T1, biotinylated interleukin 8 (IL8-biotin); assay: solution equilibrium with 1e-10 M biotin-IL-8, B/F vs B plot, free Fab by sandwich ELISA

% Immunoreactive Protein [1]: 93% | Ka [2]: 2.8e+11 M⁻¹
B1: M2-12 (Fab)
heavy: DVQLVESGGGVVHPGRSLRLSCAASGFTFSYYGMHWVRQAPGKGLEWMTLISYDGDNKYYADSVKGRFTISRENSKNTLYLQMNSLRAEDTAVYYCARDGIGYFDYWGQGTLVTVSSASTKGPSVFPLAPSSKSTSGGTAALGCLVKDYFPEPVTVSWNSGALTSGVHTFPAVLQSSGLYSLSSVVTVPSSSLGTQTYICNVNHKPSSTKVDKKAEPKSHHHHHH
light: EIVMTQSPGTLSLSPGERATLSCRASQGVSSSYLAWYQQKPGQAPRLLIYGASSRATGIPDRFSGSGSGTDFTLTISSLEPEDFAVYYCQQYGSSPPYTFGQGTKLEIKRTVAAPSVFIFPPSDEQLKSGTASVVCLLNNFYPREAKVQWKVDNALQSGNSQESVTEQDSKDSTYSLSSTLTLSKADYEKHKVYACEVTHQGLSSPVTKSFNRGESYPYDVPDYAS
notes: also called M2_12H; M2_12L
